This passage reports Kd, koff and kon results from patent US20210179678A1 (NAVIGO PROTEINS, published 2021).

Substitutions are numbered along the chain they refer to.

First the molecules themselves.
B1: Affilin-138801 (designed binder)
chain: MQIFVHTDTGKTITLEVEPSNTIENVKAKIQDKEGIPPDQQRLIWAGKQLEDGRTLSDYNIDPQLKLHLVLRLRAAGIGIQTFVTTQTGETITLEVEPSDTIENVKAKIQDKVGIPPDQQRLIWAGKQLEDGRTLSDYNIDYRYLHLVLRLRAA
notes: GIG linker between the two ubiquitin muteins; not shown: C-terminal Strep-tag II
B2: Affilin-77404 (designed binder)
chain: MRIWVHTLTGKTITLEVEPSDTIENVKAKIQDKEGIPPDQQRLIWAGKQLEDGRTLSDYNINPKLSLHLVLRLRAAGIGMQIFVHTQTGKTITLEVEPSDTIENVKAKIQDKEGIPPDQQRLIWAGKQLEDGRTLSDYNIGWQAPLHLVLRLRAA
notes: not shown: C-terminal Strep-tag II
B3: Affilin-138800 (designed binder)
chain: MQIFVHTDTGKTITLEVEPSDTIENVKAKIQDKEGIPQDQQRLIWAGKQLEDGRTLSDYNIDPQLKLHLVLRLRAAGGMQIFVTTQTGKTITLEVEPSDTIENVKAKIQDKEGIPPDQQRLIWAGKQLEDGRTLSDYNIDYRFLHLVLRLRAA
notes: Strep-tagged form used in ELISA, SPR and cell assays; GG linker between the two ubiquitin muteins; not shown: C-terminal Strep-tag II
B4: Affilin-181491 (designed binder)
chain: B3 chain with Y141A
notes: as for B2
B5: Affilin-181492 (designed binder)
chain: B3 chain with R151G, A152L
notes: as for B2
B6: Affilin-181493 (designed binder)
chain: B3 chain with R151A, A152L
notes: as for B2
B7: Affilin-181490 (designed binder)
chain: B3 chain with S57C

The target of the first assay is T1, fibronectin fragment 67B89 (human ED-B flanked by domains 6, 7 and 8, 9) (human, UniProt P02751-7 1080-1538, biotinylated with EZ-Link Sulfo-NHS-LC-Biotin (preferred N-terminal) for SPR; unlabelled when coated for ELISA).
T1 construct: range 1080-1538; The range 1080-1538 is printed once for both 67B89 and the off-target 6789; made in E. coli from pET28a; also called target 67689
As to the kind of experiment: concentration dependent ELISA on plates coated with 67B89; Affilin applied in PBS for 1 h; detection with anti-Ubi antibody and anti-IgG-POD, Abs 450-600 nm. As for the experimental part: (§1) The ELISA was carried out in 96-well medium binding plates (Microlon 200, Greiner Bio-One, Kremsmuenster, Austria). Coating with target 67689 and off-target 6789 (both 5 μg/ml in PBS) was performed by overnight incubation at 4° C. The wells were then washed with PBST and blocked with 3% BSA solution for 2 h at room temperature. Various concentrations of Affilin protein were applied on target coated plates in mouse serum for 1 and 24 h at 37° C. Between all incubation steps the wells were washed 3-fold with PBST. For detection of Affilin binding to 67689 anti-Ubi-antibody and anti-IgG-POD were used, followed by TMB Plus (Kem-En-Tec Diagnostics, Taastrup, Denmark) incubation. Measuring the absorbance at 450 nm was carried out with a Sunrise microplate reader (Tecan, Maennedorf, Switzerland).
(In general: ELISA stands for enzyme-linked immunosorbent assay.)
In general, Kd refers to a measure of binding affinity in units of concentration. In the case of B1, the dissociation constant (Kd) was found to be 1.8 nM.

Regarding B2, the equilibrium dissociation constant (Kd) turned out to be 1.2 nM.

Molecule B3 had a dissociation constant Kd of 6.7 nM. This Kd lies about 5.6-fold higher than the previous one.

For another assay, the target named is T1, fibronectin fragment 67B89 (human ED-B …). As to the kind of experiment: SPR (Biacore 3000), biotinylated 67B89 on streptavidin chip, Affilin injected 0-500 nM, 6789 channel subtracted, 1:1 Langmuir fit. Background: Surface plasmon resonance follows binding to a sensor surface in real time, without labels.
A word on the koff: it is the rate constant with which the complex falls apart. What is called kon is the second-order rate constant of association. Molecule B1 gave a Kd of 0.925 nM, a koff of 0.00151 s⁻¹ and a kon of 1.63e+06 M⁻¹ s⁻¹.

The molecule B3 returned a Kd of 0.634 nM, a koff of 0.000783 s⁻¹ and a kon of 1.24e+06 M⁻¹ s⁻¹.

B4 yielded a Kd of 71.1 nM, a koff of 0.0687 s⁻¹ and an on-rate (kon) of 969000 M⁻¹ s⁻¹.

Take B5: binding was characterised by a dissociation constant (Kd) of 4.37 nM, the koff was 0.00665 s⁻¹ and the kon was found to be 1.52e+06 M⁻¹ s⁻¹.

Molecule B6 registered an equilibrium dissociation constant (Kd) of 3.59 nM, a koff of 0.00691 s⁻¹ and a kon of 1.93e+06 M⁻¹ s⁻¹.

Take B7: the Kd was 0.615 nM, the koff was 0.000948 s⁻¹ and the kon was determined as 1.54e+06 M⁻¹ s⁻¹.

For another assay the target is unchanged. As to the kind of experiment: concentration dependent ELISA on plates coated with 67B89; Affilin applied in mouse serum for 24 h at 37 C; detection with anti-Ubi antibody and anti-IgG-POD, Abs 450-600 nm. As for the experimental part: as §1
Take B1: binding was put at a Kd of 1.4 nM.

For B2, the Kd stood at 2.2 nM. Against the preceding molecule, the Kd is about 1.6-fold higher.

B3 showed a Kd of 12.3 nM.

For a further assay the target is unchanged. Description: concentration dependent ELISA on plates coated with 67B89; Affilin applied in mouse serum for 1 h at 37 C; detection with anti-Ubi antibody and anti-IgG-POD, Abs 450-600 nm. As for the experimental part:
as §1
Take B1: the equilibrium dissociation constant (Kd) was 0.668 nM.

In turn, B2 returned a Kd of 0.936 nM.

Regarding B3, binding was characterised by a dissociation constant (Kd) of 10.6 nM.
